Laboratory results reported in paper PMC4336329 (PLoS ONE, 2015).
The campaign covered roughly 310,000 compounds. About 14,000 (4.5%) showed an effect of 50% or more. The effect is printed as a negative number. Some of the results follow.

Molecular target: human ether-à-go-go-related gene (hERG) potassium channel (human, UniProt Q12809)
Test: primary screen, population patch clamp on CHO cells stably expressing hERG
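Further: peak tail current of the secondary pulse compared with the same well before compound.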

Chain of human ether-à-go-go-related gene (hERG) potassium channel (Q12809 whole entry, looked up): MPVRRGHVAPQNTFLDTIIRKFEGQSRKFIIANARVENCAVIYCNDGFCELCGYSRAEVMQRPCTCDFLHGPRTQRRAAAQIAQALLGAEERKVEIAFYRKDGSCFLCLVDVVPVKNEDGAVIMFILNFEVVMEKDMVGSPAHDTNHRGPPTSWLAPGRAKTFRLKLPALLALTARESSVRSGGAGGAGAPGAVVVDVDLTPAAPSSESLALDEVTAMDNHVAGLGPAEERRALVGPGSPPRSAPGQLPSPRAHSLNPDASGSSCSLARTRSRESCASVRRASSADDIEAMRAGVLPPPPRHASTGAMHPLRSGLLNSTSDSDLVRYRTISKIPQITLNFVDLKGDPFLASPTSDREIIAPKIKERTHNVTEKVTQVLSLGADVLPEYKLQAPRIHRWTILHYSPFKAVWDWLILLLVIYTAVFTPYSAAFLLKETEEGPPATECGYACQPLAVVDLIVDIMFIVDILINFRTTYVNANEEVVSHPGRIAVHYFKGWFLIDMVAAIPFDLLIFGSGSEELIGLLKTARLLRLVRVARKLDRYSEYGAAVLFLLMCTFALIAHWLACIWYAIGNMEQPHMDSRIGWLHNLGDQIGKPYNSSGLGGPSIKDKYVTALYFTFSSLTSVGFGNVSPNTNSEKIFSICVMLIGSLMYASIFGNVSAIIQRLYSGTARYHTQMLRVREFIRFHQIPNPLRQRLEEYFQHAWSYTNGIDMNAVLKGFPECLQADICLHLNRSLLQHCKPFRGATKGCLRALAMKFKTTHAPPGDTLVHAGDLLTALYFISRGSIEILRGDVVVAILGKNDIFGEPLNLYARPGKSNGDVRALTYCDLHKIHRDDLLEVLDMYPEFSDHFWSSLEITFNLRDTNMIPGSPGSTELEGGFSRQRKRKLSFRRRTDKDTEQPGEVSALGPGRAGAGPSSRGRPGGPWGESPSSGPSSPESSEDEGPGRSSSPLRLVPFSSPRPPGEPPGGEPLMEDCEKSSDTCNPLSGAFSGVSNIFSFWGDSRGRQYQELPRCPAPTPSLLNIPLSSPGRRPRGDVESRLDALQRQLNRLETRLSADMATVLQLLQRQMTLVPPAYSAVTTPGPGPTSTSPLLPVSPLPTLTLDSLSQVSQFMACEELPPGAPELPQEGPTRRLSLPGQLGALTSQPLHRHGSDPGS

Structure (SMILES)	hERG current change (%, negative = inhibition) at 10uM
COc1ccc(NC(=S)NC2CC3CCCC(C2)N3C2CC2)cc1 (stereo not shown)	-41.3%
O=C(CCNC(=O)N1CC(=O)Nc2ccccc21)NCc1cccc(Cl)c1	-2.37%
Cc1nc(-c2ccccc2)sc1C(=O)O	7.03%
Cc1ccnc(NC(=O)CNC(=O)c2sc3ccccc3c2Cl)c1	0.658%
O=c1oc2cc(OCc3c(F)cccc3Cl)ccc2cc1-c1ccccn1	-1.01%
CCOC(=O)c1cc(OC(=O)c2ccccc2)n(-c2ccccc2)n1	-5.36%
CC(c1ccccc1)n1c(-c2ccc(Cl)cc2)n[nH]c1=S (stereo not shown)	13.9%
CCOC(=O)Nc1ccc2c(c1)N(C(=O)OCCN(C)C)c1ccccc1CC2	-38.9%
CCOc1cc(/C=N/n2cnnc2)c(Br)cc1O	-7.49%
CCOC(=O)C(C)Sc1ncnc2c1c(-c1ccccc1)cn2-c1ccc(OC)cc1 (stereo not shown)	6.91%
Cc1nc(C)c(C(=O)NNS(=O)(=O)c2ccc3ccccc3c2)s1	-3.21%
O=C(Nc1ccc(O)cc1)/C(=C\C=C\c1ccccc1)NC(=O)c1ccccc1	-7.34%
CCOc1cc(/C=N/NC(N)=S)cc(Br)c1OCc1ccccc1C	16.3%
CCOC(=O)C1=C(N)Oc2cc(O)ccc2C1c1ccc(F)cc1F (stereo not shown)	11.8%
CCOC(=O)CC(NC(=O)C1c2ccccc2Oc2ccccc21)c1ccccc1Cl (stereo not shown)	29%
O=C(NCc1nnnn1-c1cccc(F)c1)c1ccc(S(=O)(=O)N2CCOCC2)cc1	-2.15%
COc1ccc(/C=C2\Sc3ccc(C(=O)N4CCc5ccccc5C4)cc3N(C)C2=O)cc1	7.98%
O=C(CC1NCCNC1=O)Nc1ccc(Cl)c(Cl)c1 (stereo not shown)	3.96%
CC1(C)CC(=O)C(C(=O)Cc2ccccc2[N+](=O)[O-])C(=O)C1	34.3%
C/C=C(\C)C(=O)Nc1cccc(C2=NOC3(C2)C[C@H](C(N)=O)N(C(=O)c2cc([N+](=O)[O-])cc([N+](=O)[O-])c2)C3)c1 (stereo partly shown)	4.21%
O=C(CCC1CCCN(C(=O)c2cccnc2)C1)NCc1ccccc1F (stereo not shown)	1.5%
CCc1nnc(NC(=O)CSc2nnc(-c3ccccc3OC)n2-c2ccc(C)cc2)s1	10.5%

Structure (SMILES)	hERG current change (%, negative = inhibition) at 10uM
Nc1nc(C2CCCCC2)cs1	-4.06%
Cc1ccc(S(=O)(=O)N(Cc2cc3cc4c(cc3[nH]c2=O)OCCO4)CC2CCCO2)cc1 (stereo not shown)	12.3%
Cc1cc(C)cc(N(C(=O)c2csnn2)C(C(=O)NC(C)(C)C)c2cccs2)c1 (stereo not shown)	-13.6%
COCc1ccc(C(=O)NC(C)c2cnn(-c3ccccc3C)c2C)o1 (stereo not shown)	10.2%
O=C(NC1CCCc2ccccc21)c1ccc(F)cc1F (stereo not shown)	-7.09%
Cc1cc(N2CCN(Cc3cn(C)nc3-c3ccccc3F)CC2)cc(C)n1	-35%
CC1C(C#N)=C(N)OC2=C1C(=O)CCC2 (stereo not shown)	-16.7%
C=CCOC(=O)Nc1ccc(Cl)cc1NC(=O)OCC=C	-18.1%
O=C(Nc1cccc(-c2nnn(CC(=O)N3CCc4ccccc4C3)n2)c1)C1CCC1	2.59%
O=c1[nH]c(CSc2nc3ccccc3s2)nc2cc(Cl)ccc12	12.9%
CC(Oc1ccccc1)C(=O)OCC(=O)NC(=O)NCc1ccco1 (stereo not shown)	11.2%
Cc1cc(=O)[nH]c(N=N/C(=N/Nc2ccc(O)cc2)c2ccccc2)n1	6.74%
O=C(NCCOc1ccccc1)c1ncn[nH]1	21.1%
COc1ccc(S(=O)(=O)N2CCC(Nc3ccccc3Cl)CC2)cc1	11.6%
COC(=O)c1ccccc1NC(=O)NC1CCN(Cc2ccccc2)CC1	-31.1%
CC(Oc1ccc(Br)cc1)C(=O)NNC(=O)CCN1CCN(c2ccccc2)CC1 (stereo not shown)	-61.9%
O=C(OCc1ccccc1)C1=[N+]([O-])OC(C(=O)OCc2ccccc2)C1c1c[nH]c2ccccc12 (stereo not shown)	4.64%
CC(=O)Nc1ccc(NC(=O)COC(=O)c2cc([N+](=O)[O-])ccc2N2CCOCC2)cc1	0.326%
Cc1ccnn1CCC(=O)O	11.1%
CCSc1nc2ccc(N3C(=O)C4C5C=CC(C5)C4C3=O)cc2s1 (stereo not shown)	3.17%
O=C(NCCN1C(=O)S/C(=C\c2ccccc2)C1=O)C1CCN(S(=O)(=O)c2cccs2)CC1	-23.8%
